# Measurements from PubChem BioAssay AID504332 (National Center for Advancing Translational Sciences (NCATS), 2011).
# About 31,000 (8.9%) of roughly 350,000 compounds were called active. The inconclusive results got no clear call from the source; some entries with a clear call stand among them for comparison. The call rests on the fitted dose curve; in most records, active means well fitted inhibition curve with a large enough effect; inconclusive means small, poorly fitted or top-dose-only effect; inactive means no such curve, though single readings can be large or run the other way. Potencies of inconclusive entries are doubtful fits and often do not repeat.
# Target: Histone-lysine N-methyltransferase EHMT2 (Homo sapiens) (UniProt Q96KQ7)
# Assay: qHTS Assay for Inhibitors of Histone Lysine Methyltransferase G9a; further: nearly all actives have a fitted effect of over 75% in size
# Details: G9a H3K9 monomethylation, AlphaScreen, 2 h; activity, negative = inhibition: at 59 µM (top of the series) unless noted
# How it was run: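 Methyltransferase reactions run at room temperature for 2 h (20 nM enzyme, 500 nM biotin-H3K9 peptide, 20 uM SAM) after a 15 min compound preincubation; product detected by AlphaScreen beads and anti-H3K9me1 antibody.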
# On the % scale 0 is the no-effect control and ±100 the full control effect; potency means the concentration at half of the fitted maximal effect; tags describe the fitted curve by direction and shape.
# UniProt Q96KQ7, sequence (Q96KQ7 whole entry, looked up): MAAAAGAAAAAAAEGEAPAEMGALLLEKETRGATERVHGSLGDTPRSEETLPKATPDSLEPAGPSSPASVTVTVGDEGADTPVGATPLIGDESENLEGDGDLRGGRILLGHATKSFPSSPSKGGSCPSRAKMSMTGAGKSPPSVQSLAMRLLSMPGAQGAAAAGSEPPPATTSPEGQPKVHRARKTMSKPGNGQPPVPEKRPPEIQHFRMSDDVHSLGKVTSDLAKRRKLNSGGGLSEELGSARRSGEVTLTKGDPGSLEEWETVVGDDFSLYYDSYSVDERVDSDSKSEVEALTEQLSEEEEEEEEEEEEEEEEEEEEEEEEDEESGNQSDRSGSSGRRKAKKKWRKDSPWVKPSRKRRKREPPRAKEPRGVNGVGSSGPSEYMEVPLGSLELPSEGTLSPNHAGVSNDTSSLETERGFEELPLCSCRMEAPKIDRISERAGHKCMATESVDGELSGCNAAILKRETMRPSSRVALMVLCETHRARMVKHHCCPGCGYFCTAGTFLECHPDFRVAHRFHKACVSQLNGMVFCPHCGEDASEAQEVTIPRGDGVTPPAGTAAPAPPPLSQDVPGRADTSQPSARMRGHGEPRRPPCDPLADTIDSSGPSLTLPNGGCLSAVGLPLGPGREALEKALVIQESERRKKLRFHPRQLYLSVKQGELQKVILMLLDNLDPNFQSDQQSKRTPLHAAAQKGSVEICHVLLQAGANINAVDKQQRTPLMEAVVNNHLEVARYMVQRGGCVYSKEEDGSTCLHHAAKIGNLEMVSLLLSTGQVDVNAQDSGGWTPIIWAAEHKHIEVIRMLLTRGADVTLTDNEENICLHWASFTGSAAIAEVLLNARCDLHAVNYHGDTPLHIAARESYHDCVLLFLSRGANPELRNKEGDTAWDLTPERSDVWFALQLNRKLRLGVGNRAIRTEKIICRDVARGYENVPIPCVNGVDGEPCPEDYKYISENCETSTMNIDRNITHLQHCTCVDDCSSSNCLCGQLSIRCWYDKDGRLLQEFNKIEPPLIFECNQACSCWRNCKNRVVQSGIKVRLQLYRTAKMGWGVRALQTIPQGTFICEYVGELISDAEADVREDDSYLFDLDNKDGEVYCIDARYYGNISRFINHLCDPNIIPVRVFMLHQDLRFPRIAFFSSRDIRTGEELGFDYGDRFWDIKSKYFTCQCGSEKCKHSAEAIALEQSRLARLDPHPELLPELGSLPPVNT
SMILES,Potency,"activity, negative = inhibition"
COc1ccc(/C=C\C(=O)NCc2ccc3[nH]c(C)cc3c2)cc1OC,"inconclusive: 79.4 µM [inhibitor, single point]",
Cc1ccc(CN2CCSc3ccc(C(=O)NCCCN4CCN(C)CC4)cc32)cc1,"inconclusive: 56.2 µM [inhibitor, single point]",
O=C1C2C3C=CC(C2C(=O)N1c1ccccc1O)C1C2C(=O)N(c4ccccc4O)C(=O)C2C31 (configuration not stated),inactive,
C/C(=N\NC(=O)c1cc(C)oc1C)c1ccc(C)c([N+](=O)[O-])c1,,inactive: 16.9% [at 12.7 µM]
CCOCCCNC(=S)N(Cc1ccco1)Cc1cc2cc3c(cc2[nH]c1=O)OCCO3,"inconclusive: 79.4 µM [inhibitor, single point]",
NNC1=N[C@H]2CS(=O)(=O)C[C@H]2S1,inactive,
CN(C)S(=O)(=O)c1ccc(C(=O)NCc2nnc(SCC(=O)N3CCCC3)o2)cc1,"inconclusive: 89.1 µM [inhibitor, single point]",
COc1cccc(C(=O)Nc2cc(-c3cn4cccnc4n3)ccc2C)c1,active: 31.6 µM,
CCCCNC(=O)C1CCN(Cc2ccccn2)CC1,,inconclusive: -111% [inhibitor]
Cc1cc(N)c2cc(NC(=O)/C=C/c3ccccc3Cl)ccc2n1,active: 25.1 µM,
Cc1[nH]n(C)c(=O)c1[N+](=O)[O-],"inconclusive: 50.1 µM [inhibitor, partial curve]",
COC(=O)c1ccc(Cn2c(SCc3ccccc3F)nc3ccncc32)cc1,"inconclusive: 8.91 µM [inhibitor, partial curve, poor fit]",
CC(C)CN(C(=O)COC(=O)c1ccccn1)c1c(N)n(Cc2ccccc2)c(=O)[nH]c1=O,active: 44.7 µM,
COc1ccc(-c2cc3ccc(O)c(CN4CCCC(C)C4)c3oc2=O)cc1 (configuration not stated),inactive,
CCN(CC)c1ccc(S(=O)(=O)N2CCOCC2)cc1NC(=O)CSc1cccc[n+]1[O-],"inconclusive: 2 µM [inhibitor, full curve]",
CCCCOC(=O)c1ccc(NC(=O)C(=O)NCC2CCCO2)cc1 (configuration not stated),,inconclusive: -70.1% [inhibitor] [at 2.33 µM]
COc1ccc(/C=C(\C#N)c2nc3ccccc3[nH]2)cc1O,"inconclusive: 0.708 µM [inhibitor, full curve, poor fit]",
CCN1CCN(C(=O)c2cc(COc3ccc(C(C)=O)cc3OC)on2)CC1,"inconclusive: 79.4 µM [inhibitor, single point]",
Cc1nc2nc(NCc3cccc(Cl)c3)[nH]n2c(=O)c1Cc1ccccc1,"inconclusive: 7.94 µM [inhibitor, partial curve, poor fit]",
COC(=O)CC(=O)CSc1nc2c(cc1C#N)CCC2,"inconclusive: 3.98 µM [inhibitor, partial curve, poor fit]",
COc1ccc(Cc2nnc(NC(=O)C(C)(C)C)s2)cc1,"inconclusive: 89.1 µM [inhibitor, single point]",
CCn1c(=S)sc2c(=O)n(CC(=O)NCCCc3ccccc3)c(C)nc21,"inconclusive: 1 µM [inhibitor, partial curve, poor fit]",
O=C(COC(=O)C1(c2ccc(F)cc2)CCCC1)NCc1ccco1,"inconclusive: 89.1 µM [inhibitor, single point]",
O=C(Oc1ccc(Cl)c2cccnc12)c1ccco1,"inconclusive: 3.16 µM [inhibitor, single point]",

SMILES,Potency,"activity, negative = inhibition"
CN1CCN(S(=O)(=O)c2cccc(C(=O)Oc3cccc(C#N)c3)c2)CC1,"inconclusive: 89.1 µM [inhibitor, single point]",
O=C(O)C1CCC(N2C(=O)C3C4CCC(C4)C3C2=O)CC1 (configuration not stated),inactive,
CCc1cccc(C)c1NC(=S)NCc1cccn1C,inactive,
CC(=O)N1CCc2cc(S(=O)(=O)NC(CC(C)C)C(=O)NCCc3ccc(C)cc3)ccc21 (configuration not stated),inactive,
Cn1cc(C(=O)N/N=C/c2c(O)ccc3ccccc23)ccc1=O,"inconclusive: 56.2 µM [inhibitor, partial curve]",
CC(=O)Nc1ccc(NC(=O)c2ccccc2Sc2ccc([N+](=O)[O-])cc2Cl)cc1,"inconclusive: 39.8 µM [inhibitor, partial curve, poor fit]",
CCCCn1c(N)c(N(CC(C)C)C(=O)CSCc2c(C)noc2C)c(=O)[nH]c1=O,active: 44.7 µM,
CC(=O)NS(=O)(=O)c1ccc(NC(=O)/C=C/c2ccc(C)o2)cc1,active: 22.4 µM,
O=C1NC(c2ccccn2)Nc2sc3c(c21)CCC3 (configuration not stated),active: 22.4 µM,
Nc1ccc(Br)cc1Br,inactive,
CCN1CCN(C(=O)/C(=C/c2ccco2)NC(=O)c2ccccc2)CC1,"inconclusive: 89.1 µM [inhibitor, single point]",
CCOC(=O)c1c(C)oc2c1c1c(c3ccccc32)OCN(Cc2cccnc2)C1,"inconclusive: 1.58 µM [inhibitor, partial curve, poor fit]",
CCOC(=O)c1ccc(NC(=O)CSc2nc3c(c(=O)n2C)SC(C)C3)cc1 (configuration not stated),"inconclusive: 89.1 µM [inhibitor, single point]",
Cc1c(-c2ccc(O)cc2)nc2nc(-c3ccccc3)c(-c3ccccc3)nn12,"inconclusive: 79.4 µM [inhibitor, single point]",
COc1ccc(CC(C)CC(=O)Nc2ccc(OC)cc2)cc1 (configuration not stated),inactive,
COc1ccccc1/C=C(\C#N)C(=O)Nc1ccc(S(N)(=O)=O)cc1,inactive,
CCOC(=O)N1CCC(N2Cc3cccc(C(=O)NCc4ccc5c(c4)OCO5)c3C2=O)CC1,"inconclusive: 44.7 µM [inhibitor, partial curve, poor fit]",
Cc1onc(-c2ccc(F)cc2F)c1C(=O)Nc1cccc(C(F)(F)F)c1,inactive,
Cc1cc(C)cc(C(=O)N/N=C/c2ccoc2)c1,inactive,
CC(=O)Nc1ccc2c(c1)nc(CCNC(=O)c1ccco1)n2C,inactive,
CCc1ccc(NC(=O)Cn2c(=O)oc3cc(S(=O)(=O)N4CCCCCC4)ccc32)cc1,inactive,
Cc1n[nH]c(=O)nc1NCc1ccccc1Cl,,inconclusive: -76.6% [inhibitor]
COc1cccc(-c2ccc3c(N)c(C(=O)NCc4ccc(Cl)cc4)sc3n2)c1,inactive,
Cc1nc(C)c(-c2csc(Nc3ccc(S(N)(=O)=O)cc3)n2)s1,"inconclusive: 89.1 µM [inhibitor, single point]",

SMILES,Potency,"activity, negative = inhibition"
COC(=O)c1cn(-c2ccccc2)c(=O)c2ccccc12,inactive,
O=[N+]([O-])c1ccc2c(c1)C(N1CCOCC1)/C(=C/COc1ccc(Cl)cc1Cl)O2 (configuration not stated),,inconclusive: -102% [inhibitor]
Cc1n[nH]c(=O)nc1NCCc1ccccc1,active: 89.1 µM,
COc1ccc(C=Nc2cccc3c(=O)[nH][nH]c(=O)c23)c2ccccc12,active: 50.1 µM,
CCN(CC)S(=O)(=O)c1ccc(N2CCOCC2)c(NC(=O)c2ccc(N3CCCC3=O)cc2)c1,active: 50.1 µM,
CCOc1ccc(NC(=S)N(CCCN2CCCC2)Cc2cccn2Cc2ccc(Cl)cc2)cc1,active: 39.8 µM,
CC(C)(C)N(NC(=O)OCc1ccccc1)C(=O)c1ccccc1,"inconclusive: 0.112 µM [inhibitor, partial curve, poor fit]",
O=C(c1ccccc1)c1cc(Cl)ccc1N1C(=O)C=CC1=O,active: 1.78 µM,
CCCCCC1(C)NC(=S)N(c2ccccc2)N1 (configuration not stated),"inconclusive: 25.1 µM [inhibitor, partial curve, poor fit]",
Cc1ccc2onc(CC(=O)N(C)c3ccccc3)c2c1,active: 11.2 µM,
O=S(=O)(Nc1ccc2nc(-c3cccc(Cl)c3)oc2c1)c1ccccc1,inactive,
O=C(/C=C/c1cccs1)NC(=S)NNC(=O)Cc1cccs1,active: 4.47 µM,
Cc1cccc(N2CCN(C3(c4ccccc4)C(=O)c4ccccc4C3=O)CC2)c1C,"inconclusive: 3.55 µM [inhibitor, partial curve, poor fit]",
COC(=O)c1[nH]c2cc(OC)ccc2c1NC(=O)CCN1CCN(Cc2ccc3c(c2)OCO3)CC1,"inconclusive: 2.24 µM [inhibitor, partial curve, poor fit]",
O=S(=O)(Nc1nc2ccccc2nc1NCc1ccco1)c1cccs1,active: 50.1 µM,
CC1CCN(S(=O)(=O)c2ccc(S(=O)(=O)NCC(=O)C(C)(C)C)cc2)CC1,"inconclusive: 14.1 µM [inhibitor, partial curve]",
NC(=O)C1CCN(C(=O)CN2CCc3ccccc32)CC1,"inconclusive: 2.82 µM [inhibitor, partial curve, poor fit]",
O=C(c1ncc[nH]1)c1ccccc1C(=O)N1CCOCC1,,inconclusive: -57.9% [inhibitor] [at 12.7 µM]
Cc1cc(C)cc(Nc2nc3c([nH]2)c(=O)n(C)c(=O)n3C)c1,"inconclusive: 44.7 µM [inhibitor, partial curve, poor fit]",
O=S(=O)(Nc1nc2n(n1)C(c1ccc(F)cc1)C=C(c1ccccc1)N2)c1ccc(Cl)cc1 (configuration not stated),"inconclusive: 39.8 µM [inhibitor, single point]",
CN(C)CCCNc1oc(-c2cccc(Cl)c2)nc1C#N,,inconclusive: -104% [inhibitor]
CC(C)CCNC(=O)CCn1c(=S)oc2ccccc21,"inconclusive: 39.8 µM [inhibitor, partial curve, poor fit]",
CC1CN(c2oc(Cc3cccc4ccccc34)nc2C#N)CC(C)O1 (configuration not stated),active: 25.1 µM,
CCOc1ccc(S(=O)(=O)NNS(=O)(=O)c2ccc(C)cc2C)cc1,active: 3.55 µM,
